# The supplement of paper PMC8728848
# This is one part of the list.
# B1: Arath Fbox (Arabidopsis thaliana), NP_178341.1 (protein)
# chain: EFTWGRKRRVKSESSPFDSFPEDCISYIISFTNPRDACVAATVSKTFESTVKSDIIWEKFLPADYESLIPPSRVFSSKKELYFSLCNDPVLFDDDKKSVWLEKASGKRCLMLSAMNLSIIWGDNPQYWQWIPIPESRFEKVAKLRDVCWFEIRGRTNTRVLSPRTRYSAYIVFKGVDKCYGFQNVAIEAAVGVVGQEPSRRLICFSEAIRRGRRNVVKPKQREDGWMEIELGEFFNDGGIMDNDEIEMSALETKQLNRKCGLIIQGIEIRPAKILAAAAASFLEQKLISEEDLNSAVDHHHHHH
# Tests used:
# Test in all cases: glycan array binding signal (z-score within array); higher = stronger binding
# Settings in all cases: glycan notation: IUPAC condensed, linker removed
# [1] = target: GlcNAc(a1-6)Gal(b1-4)GlcNAc
# How it was run: (§1)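 Glycan array binding is given as a within-array Z-score, which can be read as non-binding when negative. The arrays, 3228 of them, came from the Consortium for Functional Glycomics database and were retained only where the protein sequence was available. Z-scores were averaged across arrays of the same protein sequence at different concentrations or buffers and across linkers.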
# [2] = target: GlcNAc(b1-2)Gal(b1-3)GalNAc
# How it was run: as §1
# [3] = target: GlcNAc(b1-2)Man(a1-3)[GlcNAc(b1-2)Man(a1-6)]Man(b1-4)GlcNAc(b1-4)GlcNAc
# How it was run: as §1
# [4] = target: GlcNAc(b1-2)Man(a1-3)[GlcNAc(b1-2)Man(a1-6)]Man(b1-4)GlcNAc(b1-4)[Fuc(a1-6)]GlcNAc
# How it was run: as §1
# [5] = target: GlcNAc(b1-2)Man(a1-3)[GlcNAc(b1-4)][GlcNAc(b1-2)Man(a1-6)]Man(b1-4)GlcNAc(b1-4)GlcNAc
# How it was run: as §1
# [6] = target: GlcNAc(b1-2)Man(a1-3)[GlcNAc(b1-4)][GlcNAc(b1-2)Man(a1-6)]Man(b1-4)GlcNAc(b1-4)[Fuc(a1-6)]GlcNAc
# How it was run: as §1
# [7] = target: GlcNAc(b1-2)[GlcNAc(b1-4)]Man(a1-3)[GlcNAc(b1-2)Man(a1-6)]Man(b1-4)GlcNAc(b1-4)GlcNAc
# How it was run: as §1
# [8] = target: GlcNAc(b1-2)[GlcNAc(b1-4)]Man(a1-3)[GlcNAc(b1-4)][GlcNAc(b1-2)Man(a1-6)]Man(b1-4)GlcNAc(b1-4)GlcNAc
# How it was run: as §1
# [9] = target: GlcNAc(b1-2)[GlcNAc(b1-4)]Man(a1-3)[GlcNAc(b1-4)][GlcNAc(b1-2)[GlcNAc(b1-6)]Man(a1-6)]Man(b1-4)GlcNAc(b1-4)GlcNAc
# How it was run: as §1
# [10] = target: GlcNAc(b1-2)[GlcNAc(b1-4)]Man(a1-3)[GlcNAc(b1-4)][GlcNAc(b1-2)[GlcNAc(b1-6)]Man(a1-6)]Man(b1-4)GlcNAc(b1-4)[Fuc(a1-6)]GlcNAc
# How it was run: as §1
# [11] = target: GlcNAc(b1-2)[GlcNAc(b1-6)]Man(a1-6)[GlcNAc(b1-2)Man(a1-3)]Man(b1-4)GlcNAc(b1-4)GlcNAc
# How it was run: as §1
# [12] = target: GlcNAc(b1-2)[GlcNAc(b1-6)]Man(a1-6)[GlcNAc(b1-2)Man(a1-3)]Man(b1-4)GlcNAc(b1-4)[Fuc(a1-6)]GlcNAc
# How it was run: as §1
# [13] = target: GlcNAc(b1-2)[GlcNAc(b1-6)]Man(a1-6)[GlcNAc(b1-4)][GlcNAc(b1-2)Man(a1-3)]Man(b1-4)GlcNAc(b1-4)GlcNAc
# How it was run: as §1
# GlcNAc(b1-3)Fuc = target: GlcNAc(b1-3)Fuc
# How it was run: as §1
# GlcNAc(b1-3)Gal = target: GlcNAc(b1-3)Gal
# How it was run: as §1
# [14] = target: GlcNAc(b1-3)Gal(b1-3)GalNAc
# How it was run: as §1
# GlcNAc(b1-3)Gal(b1-4)Glc = target: GlcNAc(b1-3)Gal(b1-4)Glc
# How it was run: as §1
# [15] = target: GlcNAc(b1-3)Gal(b1-4)GlcNAc
# How it was run: as §1
# [16] = target: GlcNAc(b1-3)Gal(b1-4)GlcNAc(b1-2)Man(a1-3)[GlcNAc(b1-3)Gal(b1-4)GlcNAc(b1-2)Man(a1-6)]Man(b1-4)GlcNAc(b1-4)GlcNAc
# How it was run: as §1
# [17] = target: GlcNAc(b1-3)Gal(b1-4)GlcNAc(b1-2)Man(a1-3)[GlcNAc(b1-3)Gal(b1-4)GlcNAc(b1-2)Man(a1-6)]Man(b1-4)GlcNAc(b1-4)[Fuc(a1-6)]GlcNAc
# How it was run: as §1
# [18] = target: GlcNAc(b1-3)Gal(b1-4)GlcNAc(b1-2)[GlcNAc(b1-3)Gal(b1-4)GlcNAc(b1-6)]Man(a1-6)[GlcNAc(b1-3)Gal(b1-4)GlcNAc(b1-2)Man(a1-3)]Man(b1-4)GlcNAc(b1-4)GlcNAc
# How it was run: as §1
# [19] = target: GlcNAc(b1-3)Gal(b1-4)GlcNAc(b1-3)Gal(b1-4)GlcNAc
# How it was run: as §1
# [20] = target: GlcNAc(b1-3)Gal(b1-4)GlcNAc(b1-3)Gal(b1-4)GlcNAc(b1-2)Man(a1-3)[GlcNAc(b1-3)Gal(b1-4)GlcNAc(b1-3)Gal(b1-4)GlcNAc(b1-2)Man(a1-6)]Man(b1-4)GlcNAc(b1-4)GlcNAc
# How it was run: as §1
# [21] = target: GlcNAc(b1-3)Gal(b1-4)GlcNAc(b1-3)Gal(b1-4)GlcNAc(b1-2)Man(a1-3)[GlcNAc(b1-3)Gal(b1-4)GlcNAc(b1-3)Gal(b1-4)GlcNAc(b1-2)Man(a1-6)]Man(b1-4)GlcNAc(b1-4)[Fuc(a1-6)]GlcNAc
# How it was run: as §1
# [22] = target: GlcNAc(b1-3)Gal(b1-4)GlcNAc(b1-3)Gal(b1-4)GlcNAc(b1-2)[GlcNAc(b1-3)Gal(b1-4)GlcNAc(b1-3)Gal(b1-4)GlcNAc(b1-6)]Man(a1-6)[GlcNAc(b1-3)Gal(b1-4)GlcNAc(b1-3)Gal(b1-4)GlcNAc(b1-2)Man(a1-3)]Man(b1-4)GlcNAc(b1-4)[Fuc(a1-6)]GlcNAc
# How it was run: as §1
# [23] = target: GlcNAc(b1-3)Gal(b1-4)GlcNAc(b1-3)Gal(b1-4)GlcNAc(b1-3)Gal(b1-4)GlcNAc(b1-2)Man(a1-3)[GlcNAc(b1-3)Gal(b1-4)GlcNAc(b1-3)Gal(b1-4)GlcNAc(b1-3)Gal(b1-4)GlcNAc(b1-2)Man(a1-6)]Man(b1-4)GlcNAc(b1-4)GlcNAc
# How it was run: as §1
# [24] = target: GlcNAc(b1-3)Gal(b1-4)GlcNAc(b1-3)Gal(b1-4)GlcNAc(b1-3)Gal(b1-4)GlcNAc(b1-2)Man(a1-3)[GlcNAc(b1-3)Gal(b1-4)GlcNAc(b1-3)Gal(b1-4)GlcNAc(b1-3)Gal(b1-4)GlcNAc(b1-2)Man(a1-6)]Man(b1-4)GlcNAc(b1-4)[Fuc(a1-6)]GlcNAc
# How it was run: as §1
# [25] = target: GlcNAc(b1-3)Gal(b1-4)GlcNAc(b1-3)Gal(b1-4)GlcNAc(b1-3)Gal(b1-4)GlcNAc(b1-2)[GlcNAc(b1-3)Gal(b1-4)GlcNAc(b1-3)Gal(b1-4)GlcNAc(b1-3)Gal(b1-4)GlcNAc(b1-6)]Man(a1-6)[GlcNAc(b1-3)Gal(b1-4)GlcNAc(b1-3)Gal(b1-4)GlcNAc(b1-3)Gal(b1-4)GlcNAc(b1-2)Man(a1-3)]Man(b1-4)GlcNAc(b1-4)[Fuc(a1-6)]GlcNAc
# How it was run: as §1
# [26] = target: GlcNAc(b1-3)Gal(b1-4)GlcNAc(b1-3)Gal(b1-4)GlcNAc(b1-3)Gal(b1-4)GlcNAc(b1-3)Gal(b1-4)GlcNAc(b1-2)Man(a1-3)[GlcNAc(b1-3)Gal(b1-4)GlcNAc(b1-3)Gal(b1-4)GlcNAc(b1-3)Gal(b1-4)GlcNAc(b1-3)Gal(b1-4)GlcNAc(b1-2)Man(a1-6)]Man(b1-4)GlcNAc(b1-4)GlcNAc
# How it was run: as §1
# [27] = target: GlcNAc(b1-3)Gal(b1-4)GlcNAc(b1-3)Gal(b1-4)GlcNAc(b1-3)Gal(b1-4)GlcNAc(b1-3)Gal(b1-4)GlcNAc(b1-2)Man(a1-3)[GlcNAc(b1-3)Gal(b1-4)GlcNAc(b1-3)Gal(b1-4)GlcNAc(b1-3)Gal(b1-4)GlcNAc(b1-3)Gal(b1-4)GlcNAc(b1-2)Man(a1-6)]Man(b1-4)GlcNAc(b1-4)[Fuc(a1-6)]GlcNAc
# How it was run: as §1
# [28] = target: GlcNAc(b1-3)Gal(b1-4)GlcNAc(b1-3)Gal(b1-4)GlcNAc(b1-3)Gal(b1-4)GlcNAc(b1-3)Gal(b1-4)GlcNAc(b1-2)[GlcNAc(b1-3)Gal(b1-4)GlcNAc(b1-3)Gal(b1-4)GlcNAc(b1-3)Gal(b1-4)GlcNAc(b1-3)Gal(b1-4)GlcNAc(b1-6)]Man(a1-6)[GlcNAc(b1-3)Gal(b1-4)GlcNAc(b1-3)Gal(b1-4)GlcNAc(b1-3)Gal(b1-4)GlcNAc(b1-3)Gal(b1-4)GlcNAc(b1-2)Man(a1-3)]Man(b1-4)GlcNAc(b1-4)[Fuc(a1-6)]GlcNAc
# How it was run: as §1
# [29] = target: GlcNAc(b1-3)Gal(b1-4)GlcNAc(b1-3)Gal(b1-4)GlcNAc(b1-3)GalNAc
# How it was run: as §1
# [30] = target: GlcNAc(b1-3)Gal(b1-4)GlcNAc(b1-3)GalNAc
# How it was run: as §1
# [31] = target: GlcNAc(b1-3)Gal(b1-4)GlcNAc(b1-3)[GlcNAc(b1-3)Gal(b1-4)GlcNAc(b1-3)]GalNAc
# How it was run: as §1
# [32] = target: GlcNAc(b1-3)Gal(b1-4)GlcNAc(b1-6)[Gal(b1-3)]GalNAc
# How it was run: as §1
# [33] = target: GlcNAc(b1-3)Gal(b1-4)GlcNAc(b1-6)[GlcNAc(b1-3)Gal(b1-3)]GalNAc
# How it was run: as §1
# [34] = target: GlcNAc(b1-3)Gal(b1-4)GlcNAc(b1-6)[GlcNAc(b1-3)]Gal(b1-4)GlcNAc
# How it was run: as §1
binder,measurement,setting,value
B1,glycan array binding signal (z-score),[1],-0.537
same,glycan array binding signal (z-score),[2],-0.422
same,glycan array binding signal (z-score),[3],0.568
same,glycan array binding signal (z-score),[4],0.585
same,glycan array binding signal (z-score),[5],-0.729
same,glycan array binding signal (z-score),[6],-0.554
same,glycan array binding signal (z-score),[7],-0.742
same,glycan array binding signal (z-score),[8],-0.576
same,glycan array binding signal (z-score),[9],-0.398
same,glycan array binding signal (z-score),[10],-0.755
same,glycan array binding signal (z-score),[11],-0.389
same,glycan array binding signal (z-score),[12],-0.622
same,glycan array binding signal (z-score),[13],-0.608
same,glycan array binding signal (z-score),GlcNAc(b1-3)Fuc,-0.748
same,glycan array binding signal (z-score),GlcNAc(b1-3)Gal,-0.618
same,glycan array binding signal (z-score),[14],-0.548
same,glycan array binding signal (z-score),GlcNAc(b1-3)Gal(b1-4)Glc,-0.396
same,glycan array binding signal (z-score),[15],-0.583
same,glycan array binding signal (z-score),[16],-0.61
same,glycan array binding signal (z-score),[17],-0.348
same,glycan array binding signal (z-score),[18],0.161
same,glycan array binding signal (z-score),[19],-0.619
same,glycan array binding signal (z-score),[20],0.848
same,glycan array binding signal (z-score),[21],-0.597
same,glycan array binding signal (z-score),[22],1.27
same,glycan array binding signal (z-score),[23],-0.547
same,glycan array binding signal (z-score),[24],-0.361
same,glycan array binding signal (z-score),[25],-0.525
same,glycan array binding signal (z-score),[26],1.1
same,glycan array binding signal (z-score),[27],-0.585
same,glycan array binding signal (z-score),[28],-0.47
same,glycan array binding signal (z-score),[29],-0.761
same,glycan array binding signal (z-score),[30],-0.539
same,glycan array binding signal (z-score),[31],-0.051
same,glycan array binding signal (z-score),[32],-0.687
same,glycan array binding signal (z-score),[33],-0.679
same,glycan array binding signal (z-score),[34],-0.747
